The record followed here is publication PMC4336329 (PLoS ONE, 2015).

Molecules are shown by their SMILES. The whole screen tested about 310,000 compounds, of which about 14,000 (4.5%) showed an effect of 50% or more. Effects have a minus sign here. Some of the results follow.
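Note: peak tail current of the secondary pulse compared with the same well before compound.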

human ether-à-go-go-related gene (hERG) potassium channel, sequence (Q12809 whole entry, looked up): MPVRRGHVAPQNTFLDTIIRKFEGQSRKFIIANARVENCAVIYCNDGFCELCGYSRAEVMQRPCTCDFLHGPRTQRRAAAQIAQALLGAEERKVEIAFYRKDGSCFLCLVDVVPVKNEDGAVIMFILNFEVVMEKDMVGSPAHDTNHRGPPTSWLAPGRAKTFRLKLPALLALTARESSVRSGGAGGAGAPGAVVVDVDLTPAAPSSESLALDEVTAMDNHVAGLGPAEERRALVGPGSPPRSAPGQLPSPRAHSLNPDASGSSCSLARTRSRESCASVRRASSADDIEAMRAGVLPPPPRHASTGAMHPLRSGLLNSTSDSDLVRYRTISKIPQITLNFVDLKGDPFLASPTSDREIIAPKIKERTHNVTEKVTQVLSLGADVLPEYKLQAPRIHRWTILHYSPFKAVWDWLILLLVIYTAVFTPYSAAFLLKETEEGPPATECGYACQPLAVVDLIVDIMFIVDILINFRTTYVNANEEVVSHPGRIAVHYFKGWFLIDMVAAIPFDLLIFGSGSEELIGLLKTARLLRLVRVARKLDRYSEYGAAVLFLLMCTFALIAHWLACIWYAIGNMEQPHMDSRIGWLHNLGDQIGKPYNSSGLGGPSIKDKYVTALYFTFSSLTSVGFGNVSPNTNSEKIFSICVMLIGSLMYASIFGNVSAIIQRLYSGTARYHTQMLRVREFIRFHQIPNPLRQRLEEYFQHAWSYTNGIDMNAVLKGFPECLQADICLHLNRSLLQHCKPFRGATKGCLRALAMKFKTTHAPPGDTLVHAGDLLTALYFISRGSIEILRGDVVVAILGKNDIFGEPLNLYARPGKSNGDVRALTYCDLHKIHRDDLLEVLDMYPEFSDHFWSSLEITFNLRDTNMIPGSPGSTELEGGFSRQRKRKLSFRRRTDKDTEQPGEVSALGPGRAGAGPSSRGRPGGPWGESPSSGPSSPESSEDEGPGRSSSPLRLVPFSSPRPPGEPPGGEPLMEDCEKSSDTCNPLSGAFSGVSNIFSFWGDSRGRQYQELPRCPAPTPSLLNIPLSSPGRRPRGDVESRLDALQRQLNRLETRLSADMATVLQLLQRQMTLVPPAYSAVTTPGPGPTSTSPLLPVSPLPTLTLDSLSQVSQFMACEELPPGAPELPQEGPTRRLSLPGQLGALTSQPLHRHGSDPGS

The assay addresses human ether-à-go-go-related gene (hERG) potassium channel (human, UniProt Q12809). The assay can be described thus: primary screen, population patch clamp on CHO cells stably expressing hERG.
Take `COC(=O)c1ccc(COc2ccc(/C=N/NC(N)=S)cc2)o1`: the “hERG current change (%, negative = inhibition) at 10uM” value was -5.9%.
Under `O=C(c1ccc(N2C(=O)c3ccccc3C2=O)cc1)N1CCCCC1` stands 10.5%; under `CCN(CC)c1nc(Oc2ccc(=O)[nH]n2)nc(N2CCOCC2)n1`, 1.91%; under `CCOc1cc(NC(=O)C(C)C)c(OCC)cc1NC(=O)Nc1ccccc1`, 15.2%.
For `Clc1ccc(CO/N=C/c2cccs2)cc1` the value was 12.4%; for `CC(=O)c1cccc(N/C=C\c2nnnn2-c2ccc(F)cc2)c1`, 0.338%; for `O=C(Cc1ccc(S(=O)(=O)N2CCOCC2)s1)OCc1ccc(Cl)cc1`, -20.1%.
For `CC(C)N(Cc1ccccc1)S(=O)(=O)N(C)C` the value was 11.3%; for `COc1cc(NC(=O)c2ccccc2)c(OC)cc1NC(=O)Cc1ccccc1`, -1.3%.
Take `N=C1c2ccccc2CN1NC(=O)c1cccc(S(=O)(=O)N2CCOCC2)c1`: the “hERG current change (%, negative = inhibition) at 10uM” value is listed as -40.6%.
In the case of `CC1=C(Nc2ccc(C(=O)O)cc2)C(=O)c2ccccc2C1=O`, the “hERG current change (%, negative = inhibition) at 10uM” value was 26.1%.
For `O=c1[nH]c2cc3c(cc2cc1CN(Cc1cccnc1)C(=S)NCc1ccco1)OCO3` the value was -52.5%.
For `COc1ccc(/C=C(\NC(=O)c2ccccc2)C(=O)OC[C@@H]2CCC[N+]3(C)CCCCC23)cc1OC.[I-]` (some centres unmarked) the value was 23.3%; for `Cc1ccc(C(=O)C2=C(O)C(=O)N(CC3CCCO3)C2c2ccccc2F)o1` (centres unmarked), 19.2%; for `COc1cc(C2=NOC(C(=O)NCc3ccc(F)cc3)C2)cc(OC)c1OC` (centres unmarked), -23%.
On to `O=C(c1cc(-c2cccc(Cl)c2)on1)N1CCCCCC1`, for which the “hERG current change (%, negative = inhibition) at 10uM” value is -4.17%.
Take `O=C(OCCN1CCCCC1)c1ccc(O)cc1`: the “hERG current change (%, negative = inhibition) at 10uM” value is given as -35.4%.
Turning to `Cc1nn(CC(=O)N(C)C2CCC(C)CC2)c(C)c1S(=O)(=O)N(C)C` (centres unmarked), the “hERG current change (%, negative = inhibition) at 10uM” value is listed as -7.54%.
For `CNS(=O)(=O)c1ccc(NC(=O)Nc2ccc3c(c2)OCO3)cc1` the value was 17.8%; for `COc1ncnc2c1cnn2-c1ccccc1`, 20%.
Consider `CC(=O)N1CCc2cc(S(=O)(=O)NC3CCCc4ccccc43)ccc21` (centres unmarked), for which the “hERG current change (%, negative = inhibition) at 10uM” value was determined as 11.4%.
Under `CCOC(=O)C(C)Sc1ncnc2c1nnn2-c1ccc(F)cc1` (centres unmarked) stands 0.897%; under `O=C(c1c[nH]c2ccccc12)N1CCN(c2ccccc2)CC1`, -8.34%; under `O=C(O)/C=C/C(=O)N1N=C(c2ccco2)CC1c1ccco1` (centres unmarked), 20%.
Turning to `CC1(C)Cc2c(cnn2-c2ccc(F)cc2)C(NC(=O)CCN2CCCCO2)C1` (centres unmarked), the “hERG current change (%, negative = inhibition) at 10uM” value is reported as -26.5%.
For `Cc1ccc(NCC(=O)N/N=C/c2ccc(-c3cccc(C(F)(F)F)c3)o2)cc1` the value was 1.52%; for `Cc1c(C)n(C(=O)CSc2nncn2C)c2ccccc12`, 1.49%; for `CCOc1ccc(C(=O)N2CCN(S(=O)(=O)c3cccs3)CC2)c(OCC)c1`, -39.1%.
Under `CC1=C(C(=O)Nc2ccc(C)cc2C)C(c2ccc([N+](=O)[O-])cc2)n2ncnc2N1` (centres unmarked) stands -1.29%.
Under `CCOC(=O)C1(C)NC(c2ccco2)C2C(=O)N(c3ccc(C)cc3)C(=O)C21` (centres unmarked) stands 11.3%.
In the case of `COc1ccc(CCNC(=O)CNC(=O)Cn2cnc3sc(C)c(C)c3c2=O)cc1OC`, the “hERG current change (%, negative = inhibition) at 10uM” value is -8.02%.
In the case of `OCC1(Cc2ccccc2F)CCCN(Cc2c(F)ccc(F)c2F)C1` (centres unmarked), the “hERG current change (%, negative = inhibition) at 10uM” value is -55.5%.
For the compound `O=C(CNC(=O)c1cccs1)NCC(=O)OCc1ccccc1Cl`, the “hERG current change (%, negative = inhibition) at 10uM” value is 2.85%.
Consider `Nc1ccc(Sc2ccccc2Cl)nc1`, for which the “hERG current change (%, negative = inhibition) at 10uM” value was -10.5%.
Take `O=C(N/N=C/c1cccc([N+](=O)[O-])c1)C1CC(=O)N(c2ccc(Cl)cc2)C1` (centres unmarked): the “hERG current change (%, negative = inhibition) at 10uM” value is reported as -82.1%.
For `CC(C)(C)N1CC(c2nc3ccccc3n2CCOc2ccccc2)CC1=O` (centres unmarked) the value was -26.1%; for `CN1CCN(c2c(C#N)c(C(F)(F)F)nn2C)CC1`, 10.6%.
Under `COc1ccccc1/C=N/NC(=O)c1cc2c(OC)c(OC)ccc2[nH]1` stands 14.1%.
For `COc1ccc(/C=N/Nc2nn3cnnc3c3ccccc23)cc1` the value was -30.8%.
On to `COCCn1c(SC(C)C(=O)NCC2CCCO2)nc2sc3c(c2c1=O)CCC3` (centres unmarked), for which the “hERG current change (%, negative = inhibition) at 10uM” value is listed as -8.18%.
Consider `O=C1NC(=O)N(CCc2ccc(F)cc2)C(=O)/C1=C/c1ccco1`, for which the “hERG current change (%, negative = inhibition) at 10uM” value was determined as 12.4%.
Take `CN(C)c1nc(-c2cccnc2)nc(-c2ccc(Cl)cc2)c1C#N`: the “hERG current change (%, negative = inhibition) at 10uM” value came to 26.9%.
Turning to `CCN(C(=O)COC(=O)/C=C/c1cnc2ccccc2n1)c1ccccc1`, the “hERG current change (%, negative = inhibition) at 10uM” value is listed as 3.24%.
For `Cc1ccc(S(=O)(=O)NCC(C)NS(C)(=O)=O)cc1` (centres unmarked) the value was 10.5%.
